Reference: publication PMC7819943, “Rice protein-binding microarrays: a tool to detect cis-acting elements near promoter regions in rice”
Some of the results follow.

What follows are sequences tested against T1, OsWOX13 (Oryza sativa, UniProt Q5QMM3 1-267) (assay: protein-binding microarray (RPBM); PBS, 2% BSA, 51.3 ng/ul salmon testes DNA, 50 uM zinc acetate, 200 nM TF, 25 C, 1 h; high values mean tight binding). Conditions: protein: recombinant; tags: N-terminal polyhistidine and DsRed monomer fusion (pET32a); label: CyDye5-dUTP incorporated in the synthesized complementary strand; 3' TTTTT single-stranded linker to array surface; dsDNA, one strand shown.
T1 sequence: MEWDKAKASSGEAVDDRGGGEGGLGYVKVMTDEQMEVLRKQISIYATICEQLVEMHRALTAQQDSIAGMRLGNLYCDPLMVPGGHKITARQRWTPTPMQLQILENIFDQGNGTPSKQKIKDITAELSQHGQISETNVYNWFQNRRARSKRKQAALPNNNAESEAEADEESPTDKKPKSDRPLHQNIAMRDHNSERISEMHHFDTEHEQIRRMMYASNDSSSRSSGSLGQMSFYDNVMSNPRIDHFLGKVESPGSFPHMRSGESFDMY
How it was run: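 A custom Agilent array was converted to double-stranded form by primer extension with Cy5-dUTP and blocked with 2% BSA. Protein at 200 nM in PBS with 2% BSA, salmon testes DNA and 50 µM zinc acetate was applied for 1 h at 25 °C, followed by washing. The proteins were polyhistidine–DsRed N-terminal fusions of transcription factors, expressed in E. coli BL21-CodonPlus and Ni–NTA-purified. The binding signal is per-feature fluorescence intensity (arbitrary units) from an Axon 4000B scanner.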

**Q.** Which binding signal does the source give for “TGTCTTATTTAATAATTTTCTATGATTAATATTTTGTTATCGGAGTCACCTAGTGCAG” here?
**A.** 11300 fluorescence intensity (a.u.)

**Q.** Which binding signal does the source give for “CAGCTTCAGATTAATAAATCATTGAAATTTTCTTTTCTGGCGGAGTCACCTAGTGCAG” here?
**A.** 4340 fluorescence intensity (a.u.)

**Q.** With “TATGATTCTTTTCTAAAAGATTGATACGACATATCAATATCGGAGTCACCTAGTGCAG” as the sequence, how does the binding signal read?
**A.** 5300 fluorescence intensity (a.u.)

**Q.** How did the binding signal turn out when “ATGATAGATTTGTTCTGAGGAGAGGAAATAGCTAGGTACCCGGAGTCACCTAGTGCAG” was run?
**A.** 28500 fluorescence intensity (a.u.)

**Q.** For “ACTTGATAGTAATTAAGTATAAATTATTACAAACTATAAACGGAGTCACCTAGTGCAG”, which binding signal is on record?
**A.** 16200 fluorescence intensity (a.u.)

**Q.** For “TTCATATTGATATTGATGTTAATGAATTCAGTTAATATAACGGAGTCACCTAGTGCAG”, which binding signal is on record?
**A.** 5440 fluorescence intensity (a.u.)

**Q.** With “CTAAAAGTCAAATTTGATCATACATATTTATGGAGTAATACGGAGTCACCTAGTGCAG” as the sequence, how does the binding signal read?
**A.** 3530 fluorescence intensity (a.u.)

**Q.** How did the binding signal turn out when “GGTATTAACTGGCAACTGGCAAGCAGGTAGTAGTACTATTCGGAGTCACCTAGTGCAG” was run?
**A.** 4180 fluorescence intensity (a.u.)

**Q.** Which binding signal does the source give for “TGATATCTAATTTGATATAGATTACTATAGAATGGATCAACGGAGTCACCTAGTGCAG” here?
**A.** 13200 fluorescence intensity (a.u.)

**Q.** “ATAATTAACTATTTACCACTCTTATAAGTGATGATAAATTCGGAGTCACCTAGTGCAG” was tested. Which binding signal did it give?
**A.** 10400 fluorescence intensity (a.u.)

**Q.** “TCCAAAATTATGGATGGGTTTTATTAATAGTCTGTGTTTACGGAGTCACCTAGTGCAG” was tested. Which binding signal did it give?
**A.** 7280 fluorescence intensity (a.u.)

**Q.** For “TTTATGATTAGTACTTTTATTAGATGATAAAACTTGAATACGGAGTCACCTAGTGCAG”, which binding signal is on record?
**A.** 23800 fluorescence intensity (a.u.)

**Q.** Which binding signal does the source give for “TGACGTGATTGAGCGCTGAGCTTTGTGCTGGACCGACGACCGGAGTCACCTAGTGCAG” here?
**A.** 33500 fluorescence intensity (a.u.)

**Q.** How did the binding signal turn out when “AGTTGATGATATTATGTGTTGTCCAAACAAGTACCTTAAGCGGAGTCACCTAGTGCAG” was run?
**A.** 4390 fluorescence intensity (a.u.)

**Q.** “CTTAATTTATGTGATGATTGACATTTCATGTGGATGCTATCGGAGTCACCTAGTGCAG” was tested. Which binding signal did it give?
**A.** 45400 fluorescence intensity (a.u.)

**Q.** With “TTAAATTTTAAATTTAATACGAGTGTTTGCATTTATGGGTCGGAGTCACCTAGTGCAG” as the sequence, how does the binding signal read?
**A.** 29500 fluorescence intensity (a.u.)

**Q.** “TTTGATTAGAATTTCGAAGATTAAACAGTAAATTTAATCGCGGAGTCACCTAGTGCAG” was tested. Which binding signal did it give?
**A.** 37200 fluorescence intensity (a.u.)

**Q.** Which binding signal does the source give for “AACCCTAATTTATTCCCCTCCACCGCATCTAACACGCTAGCGGAGTCACCTAGTGCAG” here?
**A.** 14700 fluorescence intensity (a.u.)

**Q.** For “GTTAATGAATTTAGACATATATATATATATATGTTTAGATCGGAGTCACCTAGTGCAG”, which binding signal is on record?
**A.** 37700 fluorescence intensity (a.u.)

**Q.** How did the binding signal turn out when “AGCAAGCTTAATTACAATCGTTGTATACGTTTGAAGACCCCGGAGTCACCTAGTGCAG” was run?
**A.** 6960 fluorescence intensity (a.u.)

**Q.** With “CAACATTAGCAATTAAAATTGCGGGTTATTTGTAAAAGTCCGGAGTCACCTAGTGCAG” as the sequence, how does the binding signal read?
**A.** 3710 fluorescence intensity (a.u.)

**Q.** With “TAGTAATTACTAGGGAGTTACCCACGATAAAATTTTCATGCGGAGTCACCTAGTGCAG” as the sequence, how does the binding signal read?
**A.** 12800 fluorescence intensity (a.u.)

**Q.** “ACTAATGACGGATTAATTAGGCTTAATAAATTCGTCTCGCCGGAGTCACCTAGTGCAG” was tested. Which binding signal did it give?
**A.** 51500 fluorescence intensity (a.u.)

**Q.** For “CCCTTCAATCAATGCCATGACAGATACCTATGAGTACTATCGGAGTCACCTAGTGCAG”, which binding signal is on record?
**A.** 33000 fluorescence intensity (a.u.)

**Q.** Which binding signal does the source give for “AAATTAATTAATACAATATATTCCTGCATGCCCTGTATAACGGAGTCACCTAGTGCAG” here?
**A.** 23800 fluorescence intensity (a.u.)

**Q.** With “GTAATTAATTAGTTAACTCTTCACGAATTAACTTACACAACGGAGTCACCTAGTGCAG” as the sequence, how does the binding signal read?
**A.** 40600 fluorescence intensity (a.u.)

**Q.** How did the binding signal turn out when “CACCAATCATAGGCGCGCAGAGGCCACGGGGCCCCAGCCGCGGAGTCACCTAGTGCAG” was run?
**A.** 5510 fluorescence intensity (a.u.)

**Q.** For “CAGTACTGTCATTTCCAAATTGGTGTCTCATTAAACGAAACGGAGTCACCTAGTGCAG”, which binding signal is on record?
**A.** 3990 fluorescence intensity (a.u.)

**Q.** For “CATTAAGCACTGATTAACTGTACACGCTACCTATCTGACACGGAGTCACCTAGTGCAG”, which binding signal is on record?
**A.** 8770 fluorescence intensity (a.u.)

**Q.** Which binding signal does the source give for “AGTAATGATAATCGATGTCACAGAGTAAATTTGCTGGCTCCGGAGTCACCTAGTGCAG” here?
**A.** 8360 fluorescence intensity (a.u.)

**Q.** For “TGAAACGGAGGAAGTAACTAATTGGAGATTTAACATCACCCGGAGTCACCTAGTGCAG”, which binding signal is on record?
**A.** 3910 fluorescence intensity (a.u.)

**Q.** With “AGTTGTGGTTAATTACGGGGTAATTTGTACCCGCGTACGTCGGAGTCACCTAGTGCAG” as the sequence, how does the binding signal read?
**A.** 26400 fluorescence intensity (a.u.)

**Q.** “TTATGATTGCCAATCTTATTTCTTGAGTATTTCTGTTCAACGGAGTCACCTAGTGCAG” was tested. Which binding signal did it give?
**A.** 45300 fluorescence intensity (a.u.)

**Q.** For “TTGATTAATCACATGTTAATGAATGCAACTAAAAGCCTACCGGAGTCACCTAGTGCAG”, which binding signal is on record?
**A.** 33000 fluorescence intensity (a.u.)

**Q.** With “TTAAATTTTATTATTTAACTGACATGTGGGCTCACATATTCGGAGTCACCTAGTGCAG” as the sequence, how does the binding signal read?
**A.** 31100 fluorescence intensity (a.u.)

**Q.** For “GAAATTGGCAGTTTGTTTGCCTGTGTTGGCACCTACACAACGGAGTCACCTAGTGCAG”, which binding signal is on record?
**A.** 12500 fluorescence intensity (a.u.)

**Q.** For “TTGATTTGATTGGGTTGGTTCCAAATTATATTCTGTGATTCGGAGTCACCTAGTGCAG”, which binding signal is on record?
**A.** 57600 fluorescence intensity (a.u.)

**Q.** “GCAGATAAATAGGTGATTTTGGTGAACCAACATTGCATTGCGGAGTCACCTAGTGCAG” was tested. Which binding signal did it give?
**A.** 8560 fluorescence intensity (a.u.)

**Q.** For “CGTTGACAAGTATAGGGACCTCAGATGAACTTATTCCCCACGGAGTCACCTAGTGCAG”, which binding signal is on record?
**A.** 5160 fluorescence intensity (a.u.)

**Q.** With “GTGATCACCCTTTGATTGACCCGCACCCGCATCCCTTTCCCGGAGTCACCTAGTGCAG” as the sequence, how does the binding signal read?
**A.** 35500 fluorescence intensity (a.u.)

**Q.** “TATTATTAATAATTTAAGGGTTAGGTGATCTAATAAGTTACGGAGTCACCTAGTGCAG” was tested. Which binding signal did it give?
**A.** 3290 fluorescence intensity (a.u.)

**Q.** “GTCAAATTGCCATGTCAGCAAAAGCCGCTTCCAAAACCATCGGAGTCACCTAGTGCAG” was tested. Which binding signal did it give?
**A.** 6480 fluorescence intensity (a.u.)
